Test results published in patent US8987302B2, “Treatment of hepatitis C virus related diseases using hydroxychloroquine or a combination of hydroxychloroquine and an anti-viral agent” (Panmed Ltd., priority 2010, dated 2015).

System: NS5A and HCV core proteins
Assay: Immunoblot of NS5A and HCV core proteins in Huh7 replicon cells
Details: 0.5 μM and 1 μM, 48 hours

CCN(CCO)CCCC(C)Nc1ccnc2cc(Cl)ccc12 (stereo not shown) [HCQ, 2-[[4-[(7-chloro-4-quinolinyl)amino]pentyl]ethylamino]ethanol, reference compound]
HCV core and NS5A protein level: decrease both HCV core and NS5a protein level in a dose-dependent manner
